# Source: the supplement of paper PMC8728848
# The other results are listed elsewhere or left out.
# Key:
# Assay in all cases: glycan array binding signal (z-score within array); higher = stronger binding
# Conditions in all cases: glycan notation: IUPAC condensed, linker removed
# Gal3S(b1-4)Glc = biological target: Gal3S(b1-4)Glc
# In short: (§1)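 Negative Z-scores can be read as non-binding. The Z-score is calculated within each array and then averaged across arrays of one protein sequence at different concentrations or buffers and across linkers. Arrays, 3228 in all, were curated from the Consortium for Functional Glycomics database and kept only where the protein sequence was available.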
# Gal3S(b1-4)Glc6S = biological target: Gal3S(b1-4)Glc6S
# In short: as §1
# Gal3S(b1-4)GlcNAc = biological target: Gal3S(b1-4)GlcNAc
# In short: as §1
# [1] = biological target: Gal3S(b1-4)[Fuc(a1-3)]Glc6S
# In short: as §1
# [2] = biological target: Gal3S(b1-4)[Fuc(a1-3)]GlcNAc
# In short: as §1
# [3] = biological target: Gal3S(b1-4)[Fuc(a1-3)]GlcNAc6S
# In short: as §1
# Gal3S4S(b1-4)GlcNAc = biological target: Gal3S4S(b1-4)GlcNAc
# In short: as §1
# Gal3S6S(b1-4)GlcNAc = biological target: Gal3S6S(b1-4)GlcNAc
# In short: as §1
# Gal3S6S(b1-4)GlcNAc6S = biological target: Gal3S6S(b1-4)GlcNAc6S
# In short: as §1
# Gal4S(b1-4)GlcNAc = biological target: Gal4S(b1-4)GlcNAc
# In short: as §1
# Gal4S6S(b1-4)GlcNAc = biological target: Gal4S6S(b1-4)GlcNAc
# In short: as §1
# Gal6P(b1-4)GlcNAc = biological target: Gal6P(b1-4)GlcNAc
# In short: as §1
# Gal6S(b1-3)GlcNAc = biological target: Gal6S(b1-3)GlcNAc
# In short: as §1
# Gal6S(b1-3)GlcNAc6S = biological target: Gal6S(b1-3)GlcNAc6S
# In short: as §1
# Gal6S(b1-4)Glc = biological target: Gal6S(b1-4)Glc
# In short: as §1
# Gal6S(b1-4)Glc6S = biological target: Gal6S(b1-4)Glc6S
# In short: as §1
# Gal6S(b1-4)GlcNAc = biological target: Gal6S(b1-4)GlcNAc
# In short: as §1
# Gal6S(b1-4)GlcNAc6S = biological target: Gal6S(b1-4)GlcNAc6S
# In short: as §1
# GalNAc(a1-3)Gal = biological target: GalNAc(a1-3)Gal
# In short: as §1
# GalNAc(a1-3)GalNAc = biological target: GalNAc(a1-3)GalNAc
# In short: as §1
# [4] = biological target: GalNAc(a1-3)GalNAc(b1-3)Gal(a1-4)Gal(b1-4)Glc
# In short: as §1
# [5] = biological target: GalNAc(a1-3)GalNAc(b1-3)Gal(a1-4)Gal(b1-4)GlcNAc
# In short: as §1
# GalNAc(b1-3)Gal = biological target: GalNAc(b1-3)Gal
# In short: as §1
# [6] = biological target: GalNAc(b1-3)Gal(a1-4)Gal(b1-4)GlcNAc
# In short: as §1
# [7] = biological target: GalNAc(b1-3)Gal(a1-4)Gal(b1-4)GlcNAc(b1-3)Gal(b1-4)Glc
# In short: as §1
# [8] = biological target: GalNAc(b1-3)Gal(a1-6)Gal(b1-4)Glc
# In short: as §1
# GalNAc(b1-3)GalNAc = biological target: GalNAc(b1-3)GalNAc
# In short: as §1
# GalNAc(b1-3)GlcNAc = biological target: GalNAc(b1-3)GlcNAc
# In short: as §1
# GalNAc(b1-4)Gal(b1-4)Glc = biological target: GalNAc(b1-4)Gal(b1-4)Glc
# In short: as §1
# GalNAc(b1-4)GlcNAc = biological target: GalNAc(b1-4)GlcNAc
# In short: as §1
# [9] = biological target: GalNAc(b1-4)GlcNAc(b1-2)Man
# In short: as §1
# [10] = biological target: GalNAc(b1-4)GlcNAc(b1-2)Man(a1-3)[GalNAc(b1-4)GlcNAc(b1-2)Man(a1-6)]Man(b1-4)GlcNAc(b1-4)GlcNAc
# In short: as §1
# [11] = biological target: GalNAc(b1-4)GlcNAc(b1-3)GalNAc(b1-4)GlcNAc
# In short: as §1
# GalNAc(b1-4)GlcNAc6S = biological target: GalNAc(b1-4)GlcNAc6S
# In short: as §1
# GalNAc(b1-6)GalNAc = biological target: GalNAc(b1-6)GalNAc
# In short: as §1
# GalNAc3S(b1-4)GlcNAc = biological target: GalNAc3S(b1-4)GlcNAc
# In short: as §1
# GalNAc3S(b1-4)GlcNAc3S = biological target: GalNAc3S(b1-4)GlcNAc3S
# In short: as §1
binder,measurement,setting,value
Cohesin-mDC-ASGPR (Macaca mulatta) (protein) LDITSHHHHHHDDLDAVRIKVDTVNAKPGDTVRIPVRFSGIPSKGIANCDFVYSYDPNVLEIIEIEPGDIIVDPNPDKSFDTAVYPDRKIIVFLFAEDSGTGAYAITKDGVFATIVAKVKEGAPNGLSVIKFVEVGGFANNDLVEQKTQFFDGGVNVGDTTEPATPTTPVTTPTTTDDLDAASSQNSKFQRDLVTLRTDFSNFTSNTVAEIQALTSQGSSVEEMIASLKAEVEVIKQEQQAVHSEMLLRVQRLMQDLNKLTCQVATLKNNASTERTCCPVNWVEHQDSCYWFSRSGMPWAEAEKHCQLENAHLVVINSREEQNFVQEHLSFAYTWMGLSDREGAWKWVDGTDYETGFQNWKPGQPDDWQGHGLGGGEDCAHFHPDGRWNDDVCQRPYYWVCEAGLTQASQESH,glycan array binding signal (z-score),Gal3S(b1-4)Glc,-0.159
same,glycan array binding signal (z-score),Gal3S(b1-4)Glc6S,-0.276
same,glycan array binding signal (z-score),Gal3S(b1-4)GlcNAc,-0.309
same,glycan array binding signal (z-score),[1],-0.409
same,glycan array binding signal (z-score),[2],-0.417
same,glycan array binding signal (z-score),[3],-0.274
same,glycan array binding signal (z-score),Gal3S4S(b1-4)GlcNAc,-0.37
same,glycan array binding signal (z-score),Gal3S6S(b1-4)GlcNAc,-0.345
same,glycan array binding signal (z-score),Gal3S6S(b1-4)GlcNAc6S,-0.364
same,glycan array binding signal (z-score),Gal4S(b1-4)GlcNAc,-0.407
same,glycan array binding signal (z-score),Gal4S6S(b1-4)GlcNAc,-0.323
same,glycan array binding signal (z-score),Gal6P(b1-4)GlcNAc,-0.405
same,glycan array binding signal (z-score),Gal6S(b1-3)GlcNAc,-0.427
same,glycan array binding signal (z-score),Gal6S(b1-3)GlcNAc6S,-0.329
same,glycan array binding signal (z-score),Gal6S(b1-4)Glc,-0.39
same,glycan array binding signal (z-score),Gal6S(b1-4)Glc6S,-0.316
same,glycan array binding signal (z-score),Gal6S(b1-4)GlcNAc,-0.409
same,glycan array binding signal (z-score),Gal6S(b1-4)GlcNAc6S,-0.397
same,glycan array binding signal (z-score),GalNAc(a1-3)Gal,2.81
same,glycan array binding signal (z-score),GalNAc(a1-3)GalNAc,2.28
same,glycan array binding signal (z-score),[4],2.97
same,glycan array binding signal (z-score),[5],2.58
same,glycan array binding signal (z-score),GalNAc(b1-3)Gal,3.51
same,glycan array binding signal (z-score),[6],2.6
same,glycan array binding signal (z-score),[7],2.99
same,glycan array binding signal (z-score),[8],2.76
same,glycan array binding signal (z-score),GalNAc(b1-3)GalNAc,-0.357
same,glycan array binding signal (z-score),GalNAc(b1-3)GlcNAc,2.71
same,glycan array binding signal (z-score),GalNAc(b1-4)Gal(b1-4)Glc,-0.272
same,glycan array binding signal (z-score),GalNAc(b1-4)GlcNAc,3.5
same,glycan array binding signal (z-score),[9],2.58
same,glycan array binding signal (z-score),[10],2.93
same,glycan array binding signal (z-score),[11],3.21
same,glycan array binding signal (z-score),GalNAc(b1-4)GlcNAc6S,0.884
same,glycan array binding signal (z-score),GalNAc(b1-6)GalNAc,-0.42
same,glycan array binding signal (z-score),GalNAc3S(b1-4)GlcNAc,-0.387
same,glycan array binding signal (z-score),GalNAc3S(b1-4)GlcNAc3S,-0.428
